{"source": "ChEMBL document CHEMBL4888484", "about": "“Replenishing the malaria drug discovery pipeline: Screening and hit evaluation of the MMV Hit Generation Library 1 (HGL1) against asexual blood stage Plasmodium falciparum ,using a nano luciferase reporter read-out” (2022)", "note": "About 540 (0.36%) of roughly 150,000 compounds showed an effect of 50% or more. This is one part of the list.", "data": [{"system": "Plasmodium falciparum", "experiment": "Primary screen in NF54 nanoGlo assay, in single point, at 2uM, 72h; a lower Z score goes with more inhibition", "format": "functional, Erythrocyte", "conditions": "timepoint 72 hour", "units": {"% Inhibition": "%"}, "values": [{"smiles": "Cc1nccc(NC(=O)N2C3CCC2CC(CCF)C3)n1", "note": "(stereo not given)", "% Inhibition": -5, "Z score": 0.79}, {"smiles": "Cc1ccc(S(=O)(=O)N2CCOC[C@@H](CN(C)C)C2)c(F)c1", "% Inhibition": -4, "Z score": 0.73}, {"smiles": "N#Cc1c(N)sc2c1CCN(C(=O)c1cnc3ccccn13)C2", "% Inhibition": -23, "Z score": 2.34}, {"smiles": "OC1=Nc2cccc3c2c(cn3Cc2cccc(F)c2)[C@@H](c2ccco2)C1", "% Inhibition": -2, "Z score": 0.36}, {"smiles": "COc1ccc(NC(=O)CC[C@H]2CCCN(C(=O)c3cccc(Cl)c3F)C2)c(C)c1", "% Inhibition": 14, "Z score": -1.59}, {"smiles": "CC1=C(C(=O)Nc2cccnc2)[C@H](c2ccc(OCc3ccccc3)cc2)n2nc(-c3ccccc3)nc2N1", "% Inhibition": 7, "Z score": -0.82}, {"smiles": "CN(C)C(=O)CN(C)S(=O)(=O)N(C)Cc1ccccc1", "% Inhibition": -2, "Z score": 0.31}, {"smiles": "CCc1nc(C(=O)Nc2ncccc2OC)nn1-c1c(Cl)cccc1Cl", "% Inhibition": -5, "Z score": 0.56}, {"smiles": "NC(=N\\OCc1ccccc1)/C(N)=N/OCc1ccccc1", "% Inhibition": 30, "Z score": -3.89}, {"smiles": "CCc1ncc2c(n1)CN(C(=O)C(C)(C)Oc1ccccc1OC)C2", "% Inhibition": -20, "Z score": 2.04}, {"smiles": "O=C(c1nc2cccnc2s1)N(Cc1ccco1)C[C@H]1CCCO1", "% Inhibition": -11, "Z score": 0.97}, {"smiles": "O=C(c1cn(C(c2ccccc2)c2ccccc2)nn1)N1CCC[C@H]1CO", "% Inhibition": 5, "Z score": -0.59}, {"smiles": "O=C1CCCN1CCCN(CCS(=O)(=O)N1CCNCC1)S(=O)(=O)c1ccc(Cl)cc1", "% Inhibition": 5, "Z score": -0.59}, {"smiles": "O=C(NCc1ccccc1)N1CC[C@H](Oc2ncccn2)C1", "% Inhibition": -11, "Z score": 1.65}, {"smiles": "Cn1cnnc1CNC[C@](C)(O)c1ccc(Br)cc1F", "% Inhibition": -3, "Z score": 0.57}, {"smiles": "Cc1nc(NC(=O)c2cc(-c3ccccc3)on2)sc1C", "% Inhibition": 10, "Z score": -1.19}, {"smiles": "O=C(Cc1cccs1)N1C2CCC1CC(S(=O)(=O)c1ccccc1)C2", "note": "(stereo not given)", "% Inhibition": -16, "Z score": 2.07}, {"smiles": "O=C(c1cc(F)ccc1F)N(C1CCCC1)C1CC1", "% Inhibition": -6, "Z score": 0.7}, {"smiles": "O[C@@H]1C[C@H]2CN(c3ncccc3C(F)(F)F)C[C@H]2C[C@@H]1O", "% Inhibition": -5, "Z score": 0.64}, {"smiles": "COC[C@@H](c1ccnn1C)n1cc(-c2cnc(N(C)C)nc2)nn1", "% Inhibition": 9, "Z score": -1.28}, {"smiles": "Cc1nc(-c2cccc(Br)c2)ccc1C(=O)N1CCOCC1(C)C", "% Inhibition": -4, "Z score": 0.8}, {"smiles": "COc1ccc(NC(=O)Nc2ccc(-c3nc4ccccc4s3)cc2C)cc1", "% Inhibition": -4, "Z score": 0.6}, {"smiles": "COc1ccc(Br)cc1CC(=O)[C@H](C#N)C(=O)c1nccn1C", "% Inhibition": -6, "Z score": 1.12}, {"smiles": "Cc1noc(C)c1CN(C)C(=O)c1ccsc1", "% Inhibition": 3, "Z score": -0.69}, {"smiles": "Cc1nnc2ccc(-c3noc(Cc4cccc(Cl)c4)n3)cn12", "% Inhibition": -14, "Z score": 2.34}, {"smiles": "CN1C(=O)[C@]2(CCCN(C(=O)NCCc3nncn3C)C2)c2ccccc21", "% Inhibition": -21, "Z score": 3.65}, {"smiles": "COCCn1nnc2cc(S(=O)(=O)N3CCCC[C@H]3C(=O)Nc3cccc(Cl)c3C)ccc21", "% Inhibition": -26, "Z score": 2.27}, {"smiles": "O=C(c1ccco1)N1CCC[C@H]1c1nc(-c2ccccc2)no1", "% Inhibition": 0, "Z score": 0.04}, {"smiles": "NC(=O)C1=C(N2CCN(c3ccccc3)CC2)c2ccccc2S1(=O)=O", "% Inhibition": 0, "Z score": 0}, {"smiles": "Cn1nncc1S(=O)(=O)N1CC[C@H](c2nc(C3CC3)no2)C1", "% Inhibition": 31, "Z score": -3.47}, {"smiles": "CN1C(=O)c2cc(NC(=O)c3ccco3)ccc2Oc2ncccc21", "% Inhibition": 29, "Z score": -3.32}, {"smiles": "CC1(C)COc2ccc(C(=O)N3C[C@H](O)C4(CC4)C3)cc21", "% Inhibition": 15, "Z score": -1.74}, {"smiles": "Cc1ccc(C2(CNC(=O)Cc3ncc[nH]3)CC2)c(C)c1", "% Inhibition": -1, "Z score": 0.25}, {"smiles": "C[C@@H](C(=O)N1CCOc2ccc(CCC(=O)NCC3CC3)cc2C1)c1ccccc1", "% Inhibition": -9, "Z score": 1.08}, {"smiles": "COc1ccc(N2CCN(C(=O)C3=Cc4ccccc4OC3)CC2)cc1", "% Inhibition": -6, "Z score": 1}, {"smiles": "CC(C)n1ccnc1CN1CCC[C@@](O)(CNC(=O)N2CCCCC2)CC1", "% Inhibition": -5, "Z score": 0.65}, {"smiles": "O=C(NCCC1=CCCCC1)c1cncn1-c1ccc(-c2cc(C(F)(F)F)cc(C(F)(F)F)c2)cc1", "% Inhibition": -8, "Z score": 1.1}, {"smiles": "Cc1noc(C)c1CC(=O)Nc1ccc2c(c1)C[C@H](C)O2", "% Inhibition": -12, "Z score": 1.61}, {"smiles": "C=Cc1ccc(S(=O)(=O)Nc2nnc(CCCC)o2)cc1", "% Inhibition": 0, "Z score": 0.05}, {"smiles": "Cc1ccccc1N1C(=O)C2CC2C1=O", "note": "(stereo not given)", "% Inhibition": 1, "Z score": -0.13}, {"smiles": "COCCC1(C(=O)N2CCCN(C(=O)c3ccc[nH]3)CC2)CCCC1", "% Inhibition": -10, "Z score": 0.88}, {"smiles": "Cc1cc(CN(CCc2ccccc2)CC2CCN(C)CC2)cc(C)c1O", "% Inhibition": -6, "Z score": 0.81}, {"smiles": "CCOc1cccc(-n2cc(-c3ccccc3)nc2NC(=O)CN(C[C@H]2CCCO2)C(=O)C2CCCC2)c1", "% Inhibition": -9, "Z score": 1.25}, {"smiles": "Cc1ncsc1-c1nc(-c2cnccn2)no1", "% Inhibition": -2, "Z score": 0.26}, {"smiles": "CNC(=O)c1ccc(OC)c(CCCOc2ccccc2OC)c1", "% Inhibition": -13, "Z score": 2.07}, {"smiles": "CCc1ccccc1NC(=O)N1CCN(c2cc(Oc3ccc(F)cc3C)ncn2)C[C@@H]1C", "% Inhibition": 0, "Z score": -0.02}, {"smiles": "C=CCN(C(=O)Cn1c(=O)c2c(C(=O)N3CCCCC3)cc(C)nc2n(C)c1=O)c1ccccc1", "% Inhibition": 2, "Z score": -0.24}, {"smiles": "O=C1NCc2c(NCc3cnc([C@@H]4CCCO4)s3)cccc21", "% Inhibition": -5, "Z score": 0.62}, {"smiles": "N#Cc1c(F)cccc1Oc1cccc(-c2nnco2)c1", "% Inhibition": 0, "Z score": -0.04}, {"smiles": "CC[C@]1(CO)CCCN1C(=O)CNC(=O)C(C)(C)C", "% Inhibition": 4, "Z score": -0.52}, {"smiles": "Cc1cc(C(=O)N2CC(c3nc(-c4ccsc4)no3)C2)no1", "% Inhibition": 18, "Z score": -2.01}, {"smiles": "O=C1NCCCOc2cccc(c2)[C@@H]2NCCc3cc(ccc32)Oc2ccc(O)c1c2", "% Inhibition": -8, "Z score": 0.98}, {"smiles": "Cn1c(=O)n(CC2CCC(C(=O)NCc3ccccc3)CC2)c(=O)c2sccc21", "note": "(stereo not given)", "% Inhibition": -18, "Z score": 1.63}, {"smiles": "Cc1ccc(Cl)cc1-n1nc(O[C@@H](C)C(=O)NC2CC2)ccc1=O", "% Inhibition": -13, "Z score": 1.99}, {"smiles": "Clc1ccc(Cl)c(Cn2nnnc2C2CCOCC2)c1", "% Inhibition": -4, "Z score": 0.61}, {"smiles": "CCC(NC(=O)NCCC1CCCCO1)c1c(C)noc1C", "note": "(stereo not given)", "% Inhibition": -13, "Z score": 1.2}, {"smiles": "COc1cncc(CNc2ccc(Br)cc2CO)c1C", "% Inhibition": 2, "Z score": -0.2}, {"smiles": "Cc1ccccc1-c1cc(NC(=O)c2nc(=O)[nH][nH]2)n(C)n1", "% Inhibition": 2, "Z score": -0.37}, {"smiles": "Cc1cc2c(N[C@H]3CCN(C(=O)c4ccccc4)C[C@@H]3O)ncnc2s1", "% Inhibition": -11, "Z score": 2.09}, {"smiles": "COc1ccc(-c2nccn2Cc2nc(CC(C)C)no2)cc1OC", "% Inhibition": -2, "Z score": 0.46}, {"smiles": "COc1ccc(Cl)cc1C(=O)N1CC(COc2ccc(F)cc2)C1", "% Inhibition": 15, "Z score": -2.33}, {"smiles": "Cn1nccc1C[C@@H]1CCCN1C(=O)c1ccc2cccnc2n1", "% Inhibition": -5, "Z score": 0.76}, {"smiles": "COc1ccc(NC2=NC(C)(C)Cc3cc(OC)c(OC)cc32)cc1", "% Inhibition": -8, "Z score": 0.96}, {"smiles": "CCOCCC(=O)Nc1nnc([C@H](C)OC)s1", "% Inhibition": -10, "Z score": 2.02}, {"smiles": "Clc1ccc2c(Cc3nnn[nH]3)c[nH]c2c1", "% Inhibition": -9, "Z score": 1.65}, {"smiles": "Cc1ncnc(OCC2CCN(C(=O)c3cn(C)cn3)CC2)c1C", "% Inhibition": -16, "Z score": 1.84}, {"smiles": "C[C@@H](CN1CCCC1)OC(=O)c1ccccc1Cl", "% Inhibition": -9, "Z score": 1.24}, {"smiles": "Cc1cc(NC(=O)c2cc[nH]c2C)ccc1N1CCCC1=O", "% Inhibition": -12, "Z score": 1.16}, {"smiles": "Cc1nc([C@H]2CC(=O)N(c3ccccc3)C2)no1", "% Inhibition": 35, "Z score": -5.13}, {"smiles": "COc1cc(N2C[C@@H]3OC(=O)N(CCc4cccc(Cl)c4)[C@@H]3C2)ncn1", "% Inhibition": 12, "Z score": -1.52}, {"smiles": "Cn1c(=O)ccn(CC(=O)N2CC3(CCCC3)c3cccc(Cl)c32)c1=O", "% Inhibition": -8, "Z score": 1.28}, {"smiles": "CCS(=O)(=O)NCCNS(=O)(=O)c1cc(C)ccc1C", "% Inhibition": -9, "Z score": 1.1}, {"smiles": "CN(Cc1ccc(-n2cccn2)cc1)Cc1ncccc1C(=O)O", "% Inhibition": -10, "Z score": 1.34}, {"smiles": "CCn1ncc(CN(C)c2nccc(N3CCC[C@H](O)C3)n2)c1C", "% Inhibition": -1, "Z score": 0.1}, {"smiles": "Cc1cccc(C2(C(=O)N3CC[C@H](OC(F)F)C3)CCCC2)c1", "% Inhibition": -27, "Z score": 3.22}, {"smiles": "O=C(CCOc1cccc(Cl)c1)N1CCC[C@H]1c1ncon1", "% Inhibition": 13, "Z score": -2.27}, {"smiles": "C[C@@H](CN1CCC(c2[nH]ncc2-c2cccc(F)c2)CC1)c1ccccc1", "% Inhibition": 5, "Z score": -0.9}, {"smiles": "Cc1nccn1[C@@H](C)C(=O)N(C)CCCCN1CCOCC1", "% Inhibition": 0, "Z score": 0.06}, {"smiles": "CCN1CCN(Cc2cnc(OC)nc2)CC1=O", "% Inhibition": -10, "Z score": 1.9}, {"smiles": "Cc1cnc(C)n1CCC1CCN(C(=O)C2CCOCC2)CC1", "% Inhibition": 1, "Z score": -0.07}, {"smiles": "Cc1ccc(C)c(OCCN[C@H]2CCCNC2)c1", "% Inhibition": -3, "Z score": 0.25}, {"smiles": "CC(C)(C(=O)Cn1c(=O)[nH]cc(C#N)c1=O)c1ccccc1", "% Inhibition": -18, "Z score": 2.5}, {"smiles": "CCn1cc(CN2CC[C@]3(CO)CN(Cc4ccccc4)C[C@@H]3C2)c(C)n1", "% Inhibition": 6, "Z score": -1.1}, {"smiles": "CN1CCCCc2c1nc1ccccc1c2N", "% Inhibition": -5, "Z score": 0.65}, {"smiles": "Cc1nc2ccc(NC(=O)N3CCCC[C@@H]3C)cc2s1", "% Inhibition": 17, "Z score": -3.18}]}]}
